Data published in PubChem BioAssay AID360 (National Center for Advancing Translational Sciences (NCATS), 2006).
Screen size: about 48,000 compounds; about 550 (1.1%) were called active. Inconclusive results (about 4%) are left out. Rule as the data show it: active = potency below about 15 µM; inconclusive = mostly about 16 µM to 33 µM; inactive = weaker than that. The list shows a part of the results.

Each compound was assayed against Lysosomal acid glucosylceramidase (Homo sapiens) (UniProt P04062) (assay: Glucocerebrosidase). Conditions: purified enzyme, resorufin glucoside fluorescence (screen aimed at inhibitors), 20 min.
Sequence of UniProt P04062 (P04062 whole entry, looked up): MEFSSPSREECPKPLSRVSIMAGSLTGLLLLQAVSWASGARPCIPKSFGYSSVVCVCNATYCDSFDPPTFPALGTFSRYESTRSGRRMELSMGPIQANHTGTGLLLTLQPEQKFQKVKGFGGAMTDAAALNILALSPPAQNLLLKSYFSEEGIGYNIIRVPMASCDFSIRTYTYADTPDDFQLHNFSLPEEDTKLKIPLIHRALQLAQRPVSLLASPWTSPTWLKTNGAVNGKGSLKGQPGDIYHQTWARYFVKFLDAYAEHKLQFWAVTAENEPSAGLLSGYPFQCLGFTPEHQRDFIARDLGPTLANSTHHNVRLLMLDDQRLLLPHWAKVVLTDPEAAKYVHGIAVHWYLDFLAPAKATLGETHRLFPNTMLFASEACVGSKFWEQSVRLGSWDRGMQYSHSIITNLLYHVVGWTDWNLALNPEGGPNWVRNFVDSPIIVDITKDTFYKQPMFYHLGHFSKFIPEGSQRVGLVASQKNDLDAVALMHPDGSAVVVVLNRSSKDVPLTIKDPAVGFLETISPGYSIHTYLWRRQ
Procedure, shortened: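 Compounds titrated against 0.2 nM normal enzyme, 30 uM resorufin beta-D-glucopyranoside substrate, citrate/phosphate buffer with taurocholate and tween-20, pH 5.9. Reaction ran 20 min at room temperature; fluorescence (Ex 548/Em 600) gave AC50.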
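Also: the screen sought inhibitors.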
Potency is read from the fitted curve at half-maximal effect.

Potency, inactive:
Cc1cc(C)c(N2C(=NC(=O)CCCC(=O)O)SC3CS(=O)(=O)CC32)c(C)c1 (stereo not given) > 76.9 µM
CC(=O)NC(CCS(C)(=O)=O)C(=O)Nc1ccc(F)cc1Cl (stereo not given) > 76.9 µM
Cn1c(=O)cc(SCC(=O)N2CCN(Cc3ccc4c(c3)OCO4)CC2)c2ccccc21 > 76.9 µM
O=c1[nH][nH]c(=O)c2cc(N3CCCC3)ccc12 > 76.9 µM
O=c1cc(CN2CCN(Cc3ccccc3)CC2)c2cc(Cl)ccc2o1 > 76.9 µM
COc1ccc(CNc2nc(NCc3ccc(OC)cc3)n(S(C)(=O)=O)n2)cc1 > 76.9 µM
O=C1NCCCC1C(=O)Nc1cccc(C(F)(F)F)c1 (stereo not given) > 76.9 µM
COc1cccc(N(CC(=O)N2CCN(C)CC2)S(=O)(=O)c2ccc(C)cc2)c1 > 76.9 µM
O=C(CCCn1c(=O)c2sccc2n(CC(=O)NCc2ccco2)c1=O)NCc1ccco1 > 76.9 µM
Clc1cccc(OCCN2CCOCC2)c1 > 76.9 µM
O=C(O)c1ccc2c3c(ncnc13)-c1ccccc1C2=O > 76.9 µM
COc1cccc(C(=O)CN2C3=NCCCN3c3ccccc32)c1 > 76.9 µM
CC(C)OCCCNC(=O)CN1CCN(Cc2ccccc2Cl)C1=O > 76.9 µM
CC(=O)c1ccc(-n2nnnc2SCC(=O)N2CCc3ccccc3C2)cc1 > 76.9 µM
N#CC1=C(N)N(c2ccccc2Sc2ccccc2)C(=O)C1 > 76.9 µM
CCc1nnc(NC(=O)C2CCN(C(=O)NC3CCCCC3)CC2)s1 > 76.9 µM
O=C(O)c1ccc2c(c1)C(=O)N(CCC1=CCCCC1)C2=O > 76.9 µM
Cn1c(CNc2nc3ccccc3n2CCN2CCCCC2)nc2ccccc21 > 76.9 µM
O=c1c2ccccc2c(/C=N/n2cnnc2)c(O)n1-c1ccccc1F > 76.9 µM
CCOC(=O)N1CCN(c2ncnc3c2oc2nc(C(C)C)c4c(c23)CCC4)CC1 > 76.9 µM
COc1cccc(C(=O)NC2CC3CCCC(C2)N3CC(=O)Nc2ccc(N(C)C)cc2)c1 (stereo not given) > 76.9 µM
CCCn1c2c(c(O)c(C(=O)Nc3ncccc3C)c1=O)CCCC2 > 76.9 µM
CC1CCN(Cc2nc3c(c(=O)n(C)c(=O)n3C)n2Cc2c(F)cccc2Cl)CC1 > 76.9 µM
C[C@H](NC(=O)OC(C)(C)C)c1nnc(SCC(=O)c2ccc(Cl)cc2)o1 > 76.9 µM
Cc1ccc(CCSCC(=O)O)cn1 > 76.9 µM
O=C1CCCC(=NCc2ccco2)C1 > 76.9 µM
CCCCCOC(=O)C1C2C=CC3(CN(c4ccccc4C)C(=O)C13)O2 (stereo not given) > 76.9 µM
Cc1c(NC(=O)CSc2nc3c(cnn3-c3ccccc3)c(=O)[nH]2)c(=O)n(-c2ccccc2)n1C > 76.9 µM
C=CCNC(=O)C1CCN(S(C)(=O)=O)CC1 > 76.9 µM
COc1ccc(C2C(C(=O)N3CC(C)CC(C)C3)c3ccccc3C(=O)N2C)cc1 (stereo not given) > 76.9 µM
NC(=O)COC(=O)CCCc1c[nH]c2ccccc12 > 76.9 µM
CCN1C(=O)CS/C1=C(\C#N)S(=O)(=O)c1ccccc1 > 76.9 µM
COc1ccc(NC(=O)c2ccc(N(C)S(C)(=O)=O)cc2)cc1OC > 76.9 µM
O=C(NCCc1ccco1)c1nn(Cc2ccccc2)c(=O)c2ccccc12 > 76.9 µM
Cn1nnnc1SCCNCc1cccnc1 > 76.9 µM
O=C(NC1CCCC1)c1ccc(COCC(F)(F)F)o1 > 76.9 µM
Cc1c(NC(=O)c2ccc(COc3ccc4ccccc4c3)o2)c(=O)n(-c2ccccc2)n1C > 76.9 µM
Cc1ccc(S(=O)(=O)c2nc(-c3ccc(F)cc3)oc2SCC(=O)NCC2CCCO2)cc1 (stereo not given) > 76.9 µM
O=C1C2CC=CCC2C(=O)N1CC1CCCO1 (stereo not given) > 76.9 µM
CS(=O)(=O)c1ccc2nc(NC(=O)C3COc4ccccc4O3)sc2c1 (stereo not given) > 76.9 µM
Cn1c(N)c(S(=O)(=O)c2ccc(Br)cc2)c2nc3ccccc3nc21 > 76.9 µM
Cn1c(=O)c2c(nc(NCC3CCCO3)n2C)n(C)c1=O (stereo not given) > 76.9 µM
CCC(=O)Nc1c(-c2cccs2)c(=O)c2ccccc2n1C > 76.9 µM
Oc1ccccc1-c1nc(N2CCN(Cc3ccccc3)CC2)c2ccccc2n1 > 76.9 µM
CCN1CCN(C(=O)C(C)N(c2ccc(C)cc2)S(C)(=O)=O)CC1 (stereo not given) > 76.9 µM
O=S(=O)(c1ccccc1)N1C2CCC1CC(O)(c1cccnc1)C2 (stereo not given) > 76.9 µM
CCOC(=O)c1cccc(Nc2nc(C)cc(C)n2)c1 > 76.9 µM
CCN(CC)CCCN1C(=O)C(O)=C(C(=O)c2sc(C)nc2C)C1c1ccco1 (stereo not given) > 76.9 µM
CCn1c(C)nc2cc(-c3nnc(-c4c(-c5ccccc5)noc4C)o3)ccc21 > 76.9 µM
COc1ccc(N2CCN(C(=O)CN(c3ccccc3)S(C)(=O)=O)CC2)cc1 > 76.9 µM
Cc1ccnn2c(-c3ccccc3)c3c(=O)n(C)c(=O)n(C)c3c12 > 76.9 µM
COc1cccc(C2=NOC(C(=O)NC(C)C)C2)c1 (stereo not given) > 76.9 µM
O=C(CSc1nccc(=O)[nH]1)Nc1ccc(Br)c(Cl)c1 > 76.9 µM
Cc1ccc(-n2ncc3c(=O)n(CC#N)cnc32)cc1 > 76.9 µM
C=CCn1c(-c2cc(OC)cc(OC)c2)n[nH]c1=S > 76.9 µM
CN1C(=O)c2ccccc2C(C(=O)O)C1c1cccc(F)c1 (stereo not given) > 76.9 µM
COC(=O)c1[nH]c2ccccc2c1NC(=O)CCN1CCSCC1 > 76.9 µM
CC1(C)Cc2c(sc3nc(-c4cccs4)n(N)c(=O)c23)CO1 > 76.9 µM
Nc1cc(C2CCCC2)nn1-c1ccccc1 > 76.9 µM
O=C(CSc1nc2ncccc2[nH]1)c1ccc(F)cc1 > 76.9 µM
Cc1ccc(Nc2cc(C)nn2-c2nc(C)cc(=O)[nH]2)cc1 > 76.9 µM
Cc1ccc(S(=O)(=O)N2CCOCC2)cc1C(=O)NCc1ccc(F)cc1 > 76.9 µM
CC12C(=O)N(c3nccs3)C(=O)C1C1C=CC2C1 (stereo not given) > 76.9 µM
O=C(OCc1nc2ccccc2s1)c1ccc(Br)s1 > 76.9 µM
O=P1(Nn2cnnc2)C=C(c2ccccc2)OC(c2ccccc2)=C1 > 76.9 µM
O=C(O)CCCC(=O)NCCc1cccc(Cl)c1 > 76.9 µM
COc1ccc2c(c1)C(C)=CC(C)(C)N2C(=O)CNCc1ccc2c(c1)OCO2 > 76.9 µM
C=CCOC(=O)C1=C(C)NC2(O)c3ccccc3C(=O)C12O (stereo not given) > 76.9 µM
COc1cc(NC(=O)C2CCCCC2)c(OC)cc1NC(=O)CN1CCCCC1 > 76.9 µM
Cc1cc(CN2CCOCC2)c(O)c(C2(C)CCCCC2)c1 > 76.9 µM
COc1ccc(C(=O)NCCn2ccc3ccccc32)cc1 > 76.9 µM
COc1ccccc1N1CCN(c2nc(C)nc3c2oc2ccccc23)CC1 > 76.9 µM
CCC1=C/C(=C\c2ccc3c(c2)OCO3)C(=O)S1 > 76.9 µM
CCOC(=O)N1CCC(NC(=O)CSCc2nc(-c3cccc(OC)c3)oc2C)CC1 > 76.9 µM
O=C(CCN1CCc2ccccc2C1)c1ccc2c(c1)OCCO2 > 76.9 µM
CC(C)N(Cc1nc(-c2ccccc2)no1)C(=O)C(C)(C)C > 76.9 µM
COc1ccc(N2CCN(C(=O)c3cn(C)c(=O)c4c3c3ccccc3n4C)CC2)cc1 > 76.9 µM
Cc1ccccc1N(CC(=O)NCc1ccc2c(c1)OCO2)C(=O)CCC(=O)Nc1ccccn1 > 76.9 µM
CCOCCCNS(=O)(=O)c1ccc(Br)cc1 > 76.9 µM
Cc1cc(N2C(=O)CC(N3CCN(C(c4ccccc4)c4ccccc4)CC3)C2=O)no1 (stereo not given) > 76.9 µM
CCN(CC)C(=O)CSc1nc2ccccc2c(=O)n1CCC(=O)NCc1ccc(F)cc1 > 76.9 µM
Cc1cc(NC(=O)Cn2cnc3c(cnn3C(C)(C)C)c2=O)no1 > 76.9 µM
COC(=O)c1ccc(N2C(=O)CC(NCc3ccccc3)C2=O)cc1 (stereo not given) > 76.9 µM
C=CCSc1nnc(Cc2cc(=O)[nH]c(=O)[nH]2)n1-c1cc(C)ccc1C > 76.9 µM
O=C(O)c1cc(-c2ccccc2)nc2ccccc12 > 76.9 µM
O=C(c1cccn2c(=O)c3cc(Cl)ccc3nc12)N1CCOCC1 > 76.9 µM
CCNC(=O)/N=C1/NC(=O)C(C(C)C)O1 (stereo not given) > 76.9 µM
CCOc1cc(C(=O)NCc2ccncc2)cc(OCC)c1OCC > 76.9 µM
Nc1c(C(=O)NCC2CCCO2)c2nc3ccccc3nc2n1-c1ccccc1 (stereo not given) > 76.9 µM

Potency, active:
Cc1cc(N2CCOCC2)nc2ccc(NC(=O)CCC(=O)N3CCC(C)CC3)cc12 1.68 µM
